Data as given in PMC10726135.
Some of the results follow. At the low end of the ranking the order means little. The protein was read in a cell extract, so binding may be indirect.

target: T1, HNF4alpha2 (COS-7 nuclear extract) (UniProt P41235); test: protein-binding microarray; conditions: COS-7 nuclear extract on double-stranded Agilent 4x180k PBM; binding buffer, salt, pH and temperature not given; high values mean tight binding; double strand, one strand shown; sequences stand for … in …GCCTAGGGAGATTAGAGTATCGGTCGA
T1 sequence: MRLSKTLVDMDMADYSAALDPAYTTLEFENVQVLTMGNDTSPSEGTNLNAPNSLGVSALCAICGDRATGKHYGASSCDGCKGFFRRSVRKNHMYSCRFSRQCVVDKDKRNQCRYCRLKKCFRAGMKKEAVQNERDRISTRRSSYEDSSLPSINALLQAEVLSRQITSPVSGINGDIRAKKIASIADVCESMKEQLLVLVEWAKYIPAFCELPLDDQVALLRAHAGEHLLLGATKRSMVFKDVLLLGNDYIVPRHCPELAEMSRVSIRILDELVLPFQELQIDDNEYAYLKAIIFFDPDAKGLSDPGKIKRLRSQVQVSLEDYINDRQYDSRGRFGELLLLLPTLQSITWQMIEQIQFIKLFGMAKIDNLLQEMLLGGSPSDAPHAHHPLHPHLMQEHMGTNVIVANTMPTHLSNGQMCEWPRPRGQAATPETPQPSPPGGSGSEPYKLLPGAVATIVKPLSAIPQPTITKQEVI

| Sequence | binding signal (log2 normalized intensity) |
| --- | --- |
| GTGACTTGATCTTTGACTGGATTCTCAGCC | 0.789 |
| ATAGGTCAGAGGACACCCGGGGTGGGCATT | 0.737 |
| ACTGAATCACACTACTGGCTTTTCTGGTTC | -1.02 |
| GAATTGTGATAATAAATGTGTTTCATCAGT | 1.47 |
| GGTTGCACTCTGGTGCCCTCTGAGTGTTTG | 1.88 |
| AGGCAAGAGCTCAGAAGCCACCAGTGCAAA | -1.17 |
| GCTTCAAAGGTCACTGTCCTAATTTTTTTT | 2.39 |
| TCAGTGGGCTAAACATCAAGACAGGTGAGA | -1.08 |
| ATTGACTCTTCGTTTTCTTTTTAGTTTACA | 0.888 |
| ATGCTTCAAATATTTGGATAATGTGCCCTT | 3.48 |
| GGTGCTGATGTTAACACAAGTTATTACCGT | 1.03 |
| CTAACCCAAATGCAAATACCTATAGACCTG | -1.12 |
| CTTATCAGCCCCCATGTCAGGGAAGGTGCC | 2.52 |
| AGGTGACCTTTGCTCCGGTTCCCAATAAGT | 5.06 |
| TAAACATTCCCCTTTGTCTAAGCTAGTCAT | 0.296 |
| GACAGCCACACTTTAATGTGGAGTAGACTA | -0.927 |
| CCCGGAGCGGAGCATCCCTCGGGCCGGGAA | -0.949 |
| CTGCTTCAGTTTTGCCATCAGCTCCCTCCC | 3.05 |
| AAATTGTGATAACCCCTATGTCTTCAGACT | 1.65 |
| GGAAAATTACCAATGAGAAACCTCAAAGGT | -1.04 |
| TGTGTCTGTTTACCCACTTGGGGTTCTTGG | 1.71 |
| GTTCCAGTTATGTTCTCTGTACGGAAGGCC | 0.823 |
| AATCTTATTTTTACTATGTGGCATTTAGAA | 1.56 |
| AGCATAGAAGTAAGAAATCAGGAGCAAAGG | -0.804 |

| Sequence | binding signal (log2 normalized intensity) |
| --- | --- |
| CTTACGAAGATAAATCAGAAGAAAAAGGTA | -1.07 |
| GGAGATAAAGCAGAGGGCTGCTTGCAGGAG | -1.12 |
| GACATAACACAGGTGACCTTTGCTCCGGTT | 7.4 |
| GATAAGCGTATTTCAACCTTTGATCTATAA | 5.94 |
| GAATTTTTCCCCTAGTTACAACTGTAAACA | 1.21 |
| GCCTGGGCGCGCCTGCCCTTCGCTCCCCGA | 1.93 |
| CACCTCTGCTTATCTCAACTGATTTACCTC | 0.784 |
| AGAGGCTCCAGAAGGAATGCAGCCCTGTTG | -1.01 |
| GGCAGGCTTCGAAAAATGGGTCTGGGATGT | 0.813 |
| TGAGTATGAGTAGGCTGTAGAGGAGATGTG | 1.21 |
| ATATTCTGAGACAACACTCAGGATACCTAA | -1.14 |
| CTTTATCCAAATAACCATGCTCAACATCAA | -0.712 |
| CACTGCTTTGAAAAAACCTGTTCAGCCAGA | -1.23 |
| ATGGAGTGCTCTGAACCGTGTACCTGGGGC | 0.442 |
| AGCTGTGCGCTTAGTCCATGACGCAAGCGA | -1.14 |
| TCTCAGCCGCGCGGCTTCAGAGGCCAGCAG | -1.17 |
| CCAACTAGAATGGAACTGAAGGCAGGAAAG | -1.13 |
| TTACCCTGCAGTGTGACCTTTGCCTTCTTG | 7.49 |
| ATTCCCGCCGCCTCCGCTGGGGGACGCGAC | -1.21 |
| TGGTAAAGATGACCAGCGTGTGGCGCCATT | -1.04 |
| AGTGTACGTTGTACCCCACAGGTATTCTTT | 2.03 |
| TGCTGATAAAGGGTGTGAGAGAGAAGGCAA | -1.01 |
| GAGTTACACTATCGGCTTCCCTGGTCCTCA | -1.09 |
| CCTGCCTTTGTATAAGCCGTGCAAAGTTCA | 3.81 |

| Sequence | binding signal (log2 normalized intensity) |
| --- | --- |
| CAAAGATAAGAAAAAAACAGCACAAAAATG | -1.12 |
| CACCACAAGTTTGAACTGCACAGGCCTACT | -1.19 |
| GCAAGATAATGTCAAAAATCTTAAGGAGGA | -0.545 |
| TCTCTAGAATGAGCCTCTTCTTTAATAAGA | -1.13 |
| AGTTTATCGAAAATCCCCCACCATTGTTAT | 3.85 |
| CAACAGGGTTAAAAGCAAACCAAAAAGTTG | -1.25 |
| GCTACTGCTCCACCTTTGAAATCTCAAATA | -0.957 |
| AAAAATGATGCTACTGGAGGTATAATATCT | 0.279 |
| ACTCCCTTAAATAATGCATACGCTAGCTTT | -1.1 |
| AGAGTTTTAAAGTATCCCATCCATTTCCCA | 1.45 |
| GGAGGACCTCTGGATTACATACCCAAGTTC | -1.01 |
| CACTGTCTCAGGGTCCACATTCCAGGAATA | 1.77 |
| TAGACCAGCCAATTCTACTGGAAGTAGGTA | 0.854 |
| ATAACACCTATGTGCAAAATACCTGGAAGT | -0.17 |
| GATCAAAAACTGCCTAAATCCAAAGGGCAT | 1.31 |
| TTCAATATACAGTTGGTATTTAGTAAATAT | 1.88 |
| GGCAAAGGTCACAGCATTAGAGCAACCAGA | -1.08 |
| ACTCAATGCTGCTGATGCAGAGGGTGCAAA | 0.179 |
| TTTTTTTTTTGAGATGGAATCTTGCCCTGT | 3.18 |
| TCATAAAACACCCACCTTGTTATCTTGTCT | 1.64 |
| GCATGAGACTGAAATTCCTTGACCCTGAAA | 1.39 |
| CTCACACACACACACACACAGCTTGGAGCT | -1.13 |
| GAGAATTAAACTGCCGCGCCACTGCGTCCA | -1 |
| TTTGACATCACCTAACTTGTGGCTGGGTGA | 0.943 |
